Laboratory results published in the supplement of paper PMC11417369.
The other results are listed elsewhere or left out.

tested on: PfAP2-HC AP2 domain (GST-tagged); assay: gcPBM binding intensity (ln(normalized median fluorescence intensity)); higher = stronger DNA binding
How it was run: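 GST-tagged P. falciparum DNA-binding domains produced in E. coli were incubated for 1 h on an Agilent 4 × 180k array of primer-extended double-stranded 36-bp intergenic genomic probes with negative controls. Binding intensity is the highest Masliner-normalised natural-log median intensity across replicate spots of either probe orientation, with bound protein detected by Alexa488 anti-GST antibody at 488 nm.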

Row | Sequence | gcPBM binding intensity (ln)
1 | GAAGGAATATACAATTGTACTTGGCAAAAAAAAAAA [XGTACX_site1884] | 9.6
2 | ATATATTTATATATTACACACAATATTGTACAGATA [CACACA_site8215] | 9.78
3 | AAATACTTGTCATATTGTACATGTTTGTGATATATA [XGTACX_site3185] | 9.6
4 | GTTAAGAATATATAATGTACTTATTTTAATATAGTA [XGTACX_site6088] | 9.49
5 | TTAAATGAAAAATGGGGTACATATATACAAATATAT [XGTACX_site5931] | 9.66
6 | TGTTTATTTTTAAAAAGTACATATATAAAAAATATC [XGTACX_site4902] | 9.28
7 | ATAATTTGGAAACACACACACACACCCACATATATA [CACACA_site2286] | 10.5
8 | TGATTATACGCACGCGCACACACAACCAAAAAAAAA [CACACA_site3537] | 10.2
9 | AAAAAAAAATACTACTGTACTTTTTTTGGACATCTA [XGTACX_site1096] | 9.42
10 | AATTATAATTAATAGAGTACTGAATATATATATATA [XGTACX_site8683] | 9.89
11 | TTCCCTTTTTTTATTTGTACTTATCTTTTAAATAAT [XGTACX_site2497] | 9.89
12 | AGCATTTTTCATTTTGCACACATGTTTTATGTGTAT [CACACA_site3454] | 10
13 | GCTTCTTAGTATACTTTATAAAATATATATTAAATA [XGTACX_negctrl_site57] | 9.58
14 | TAAAATATAATAAAATGTACACGCATGCAATAGAAT [XGTACX_site7434] | 10.5
15 | ATATCGGGTGCATTAACACACATTTATTTGAATAAA [CACACA_site2350] | 9.65
16 | TTTATAAATATATATACACACACATATATATTATAT [CACACA_site8099] | 10.1
17 | ATATATCATAATAGAGGTACACATATTATATATATA [XGTACX_site782] | 9.68
18 | ATATTAAATATAATTTGTACGCATTTTTTTTTTTTT [XGTACX_site1910] | 9.56
19 | ATATACATATATATGGGTACATATATTAATATATAT [XGTACX_site8358] | 9.77
20 | ATTTTGAAAAATAAAAGTACATATAATATATCTACA [XGTACX_site7185] | 9.29
21 | TTAACATATTATAAGTGTACATATTTATAAACAAGA [XGTACX_site8806] | 9.71
22 | TCTGTTAATATTTATACACACATATTTATTTATATA [CACACA_site6658] | 9.86
23 | CACTCCATATTATACACACACACAAATGAAAAAAAT [CACACA_site3019] | 10.8
24 | TTTAGATATATGGTAGTGCATAATAAAAATATAGCC [GTGCAC_site9449] | 9.57
25 | AAAAAAAAAAAAAAGACACACATATATATATATATA [CACACA_site633] | 9.63
